Data from the supplement of paper PMC4604168 (melanoma cell lines).
This is one part of the list. Many values rest on one well or one pass, so single values are uncertain.

Key:
Test in all cases: cell count relative to DMSO control; melanoma cells; higher = more viable cells
Settings in all cases: library dose: standard library concentration; 72 h
G361 = system: G361
IPC-298 = system: IPC-298
IST-MEL1 = system: IST-MEL1
LB2518-MEL = system: LB2518-MEL
LOXIMVI = system: LOXIMVI
MEL-HO = system: MEL-HO
MZ2-MEL = system: MZ2-MEL
MeWo = system: MeWo
RPMI7951 = system: RPMI7951
RVH-421 = system: RVH-421
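Note: cells treated in 1,536-well plates, then fixed and DAPI-stained, with nuclei counted from automated high-throughput microscope images.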

SMILES | cell count (G361) | cell count (IPC-298) | cell count (IST-MEL1) | cell count (LB2518-MEL) | cell count (LOXIMVI) | cell count (MEL-HO) | cell count (MZ2-MEL) | cell count (MeWo) | cell count (RPMI7951) | cell count (RVH-421)
CCN(CC)CCNC(=O)c1c(C)[nH]c(/C=C2\C(=O)Nc3ccc(F)cc32)c1C [sunitinib] + CC(=O)c1c(C)c2cnc(Nc3ccc(N4CCNCC4)cn3)nc2n(C2CCCC2)c1=O [palbociclib] (first compound 2 µM, partner dose 0.2 µM) | 65.6% | 46.7% | 66% | 51.9% | 166% | 68.8% | 51.5% | 38.2% | 63.9% | 54.4%
C[C@]1(O)C[C@@H](c2nc(-c3ccc4ccc(-c5ccccc5)nc4c3)c3c(N)nccn32)C1 + CCc1ccc(CCOc2ccc(CC3SC(=O)NC3=O)cc2)nc1 [pioglitazone] (first compound 2 µM, partner dose 10 µM) | 74.5% | 93.2% | 98.5% | 87.3% | 77.7% | 91.3% | 103% | 67.6% | 71.9% | 94.6%
Cn1cnc2c(F)c(Nc3ccc(Br)cc3Cl)c(C(=O)NOCCO)cc21 [selumetinib] + Oc1cc(-c2nc(-c3ccccc3)[nH]c2-c2ccncc2)ccc1Cl [L779450] (first compound 0.075 µM, partner dose 1 µM) | 47% | 47.2% | 73.1% | 54.5% | 73.4% | 72.5% | 62.5% | 61.2% | 69.1% | 82.3%
Cn1cnc2c(F)c(Nc3ccc(Br)cc3Cl)c(C(=O)NOCCO)cc21 [selumetinib] + Cc1cc(N2CCOCC2)cc2[nH]c(-c3c(NC[C@@H](O)c4cccc(Cl)c4)cc[nH]c3=O)nc12 [BMS536924] (first compound 0.075 µM, partner dose 1 µM) | 46% | 50.9% | 80.8% | 26.4% | 103% | 76.3% | 53.9% | 56.9% | 123% | 79.9%
COc1cc([C@@H]2c3cc4c(cc3[C@@H](O[C@@H]3O[C@@H]5CO[C@@H](C)O[C@H]5[C@H](O)[C@H]3O)[C@H]3COC(=O)[C@H]23)OCO4)cc(OC)c1O [etoposide] + Cc1nc(Nc2ncc(C(=O)Nc3c(C)cccc3Cl)s2)cc(N2CCN(CCO)CC2)n1 [dasatanib] (first compound 0.1 µM, partner dose 0.02 µM) | 76.7% | 54.4% | 70.1% | 67% | 13.3% | 72.3% | 34.2% | 62.8% | 30.6% | 70.1%
Cn1cnc2c(F)c(Nc3ccc(Br)cc3Cl)c(C(=O)NOCCO)cc21 [selumetinib] + CN(NC(=O)CC(=O)NN(C)C(=S)c1ccccc1)C(=S)c1ccccc1 [STA4783] (first compound 0.075 µM, partner dose 0.03 µM) | 34% | 54.6% | 27.5% | 14.7% | 73.9% | 87.7% | 67.9% | 19.3% | 122% | 40%
COc1cc([C@@H]2c3cc4c(cc3[C@@H](O[C@@H]3O[C@@H]5CO[C@@H](C)O[C@H]5[C@H](O)[C@H]3O)[C@H]3COC(=O)[C@H]23)OCO4)cc(OC)c1O [etoposide] + O=C(Nc1cccc(Cl)c1)Nc1ncc(CCNc2ncnc3ccsc23)s1 [SNS314] (first compound 0.1 µM, partner dose 0.004 µM) | 65% | 71.6% | 50.2% | 66.9% | 74.2% | 70.4% | 56.5% | 67.8% | 79.8% | 72%
C[C@]1(O)C[C@@H](c2nc(-c3ccc4ccc(-c5ccccc5)nc4c3)c3c(N)nccn32)C1 + COc1ccc2c(c1)CCC1C2CCC2(C)C(NCCCCCCN3C(=O)C=CC3=O)CCC12 [U73122] (first compound 2 µM, partner dose 2 µM) | 72.6% | 84.8% | 95.6% | 83.9% | 74.7% | 74.4% | 83.1% | 60.7% | 54.2% | 81.9%
C[C@]1(O)C[C@@H](c2nc(-c3ccc4ccc(-c5ccccc5)nc4c3)c3c(N)nccn32)C1 + CCN(CC)CCNC(=O)c1c(C)[nH]c(/C=C2\C(=O)Nc3ccc(F)cc32)c1C [sunitinib] (first compound 2 µM, partner dose 2 µM) | 65% | 74.5% | 86% | 68.2% | 95.9% | 78.7% | 119% | 69% | 65.4% | 87.4%
Cn1cnc2c(F)c(Nc3ccc(Br)cc3Cl)c(C(=O)NOCCO)cc21 [selumetinib] + CCN(CC)CCNC(=O)c1c(C)[nH]c(/C=C2\C(=O)Nc3ccc(F)cc32)c1C [sunitinib] (first compound 0.075 µM, partner dose 2 µM) | 56.8% | 49% | 87.7% | 31.7% | 128% | 73.8% | 39.8% | 41.2% | 70.7% | 71.3%
Cn1cnc2c(F)c(Nc3ccc(Br)cc3Cl)c(C(=O)NOCCO)cc21 [selumetinib] + C[C@]1(c2nc3c(C(N)=O)cccc3[nH]2)CCCN1 [Veliparib] (first compound 0.075 µM, partner dose 7 µM) | 61.7% | 53.4% | 96.1% | 39.4% | 122% | 87.3% | 55.6% | 67.3% | 101% | 80.2%
C[C@]1(O)C[C@@H](c2nc(-c3ccc4ccc(-c5ccccc5)nc4c3)c3c(N)nccn32)C1 + CNC(=O)c1cc(Oc2ccc(NC(=O)Nc3ccc(Cl)c(C(F)(F)F)c3)cc2)ccn1 [sorafenib] (first compound 2 µM, partner dose 2 µM) | 74.3% | 84.7% | 111% | 77.8% | 143% | 93.3% | 89% | 68.4% | 56.4% | 98.7%
CCN(CC)CCNC(=O)c1c(C)[nH]c(/C=C2\C(=O)Nc3ccc(F)cc32)c1C [sunitinib] + OCCn1cc(-c2cnc3nnn(Cc4ccc5ncccc5c4)c3n2)cn1 [PF04217903] (first compound 2 µM, partner dose 5 µM) | 80% | 88.7% | 96.3% | 94.5% | 123% | 111% | 112% | 60% | 106% | 83.7%
Cn1cnc2c(F)c(Nc3ccc(Br)cc3Cl)c(C(=O)NOCCO)cc21 [selumetinib] + O=C(Nc1cccc(Cl)c1)Nc1ncc(CCNc2ncnc3ccsc23)s1 [SNS314] (first compound 0.075 µM, partner dose 0.004 µM) | 61.8% | 57.1% | 56.2% | 48% | 76.1% | 57.1% | 68.8% | 60.7% | 77.1% | 65.2%
Cn1cnc2c(F)c(Nc3ccc(Br)cc3Cl)c(C(=O)NOCCO)cc21 [selumetinib] + N#Cc1c(O)c2c(-c3ccc(-c4ccccc4O)cc3)csc2[nH]c1=O [A769662] (first compound 0.075 µM, partner dose 10 µM) | 57.6% | 53.4% | 81.8% | 42.7% | 82% | 82.2% | 72.7% | 67.5% | 125% | 73.2%
Cn1cnc2c(F)c(Nc3ccc(Br)cc3Cl)c(C(=O)NOCCO)cc21 [selumetinib] + O=C(Nc1ccccc1)c1cc([N+](=O)[O-])ccc1Cl [GW9662] (first compound 0.075 µM, partner dose 10 µM) | 53.9% | 54.6% | 80.1% | 43.9% | 90.5% | 75.3% | 42.4% | 62.6% | 90.5% | 83.4%
CCN(CC)CCNC(=O)c1c(C)[nH]c(/C=C2\C(=O)Nc3ccc(F)cc32)c1C [sunitinib] + CO[C@H]1C[C@@H]2CC[C@@H](C)[C@@](O)(O2)C(=O)C(=O)N2CCCC[C@H]2C(=O)O[C@H]([C@H](C)C[C@@H]2CC[C@@H](OCCO)[C@H](OC)C2)CC(=O)[C@H](C)/C=C(\C)[C@@H](O)[C@@H](OC)C(=O)[C@H](C)C[C@H](C)/C=C/C=C/C=C/1C [everolimus] (first compound 2 µM, partner dose 0.1 µM) | 37.1% | 40.7% | 78.7% | 33.1% | 109% | 57.5% | 52.7% | 36.1% | 59.2% | 67.4%
C[C@]1(O)C[C@@H](c2nc(-c3ccc4ccc(-c5ccccc5)nc4c3)c3c(N)nccn32)C1 + O=C(Nc1ccccc1)c1cc([N+](=O)[O-])ccc1Cl [GW9662] (first compound 2 µM, partner dose 10 µM) | 73.5% | 89.3% | 98.8% | 74.2% | 58.3% | 73.5% | 79.1% | 78.7% | 92.2% | 89.7%
C[C@]1(O)C[C@@H](c2nc(-c3ccc4ccc(-c5ccccc5)nc4c3)c3c(N)nccn32)C1 + Cn1c(Nc2ccc(C(F)(F)F)cc2)nc2cc(Oc3ccnc(-c4ncc(C(F)(F)F)[nH]4)c3)ccc21 [CHIR265] (first compound 2 µM, partner dose 0.4 µM) | 14.3% | 46.1% | 98.1% | 29.8% | 76.8% | 71.1% | 44% | 72.4% | 39% | 65.9%
CCN(CC)CCNC(=O)c1c(C)[nH]c(/C=C2\C(=O)Nc3ccc(F)cc32)c1C [sunitinib] + N#Cc1c(O)c2c(-c3ccc(-c4ccccc4O)cc3)csc2[nH]c1=O [A769662] (first compound 2 µM, partner dose 10 µM) | 105% | 76.7% | 89.5% | 63.1% | 88.6% | 99.3% | 96.2% | 49.9% | 87.4% | 102%
COc1cc([C@@H]2c3cc4c(cc3[C@@H](O[C@@H]3O[C@@H]5CO[C@@H](C)O[C@H]5[C@H](O)[C@H]3O)[C@H]3COC(=O)[C@H]23)OCO4)cc(OC)c1O [etoposide] + CO[C@@H]1[C@H](N(C)C(=O)c2ccccc2)C[C@H]2O[C@]1(C)n1c3ccccc3c3c4c(c5c6ccccc6n2c5c31)C(=O)NC4 [Midostaurin] (first compound 0.1 µM, partner dose 0.4 µM) | 56.1% | 65.5% | 80.6% | 63.9% | 56.4% | 87.1% | 57.1% | 71.9% | 49.9% | 78.4%
